# Experimental data taken from PMC12136788.
# The list shows a part of the results.
# B1: chr2:47388980:47388981:-_ENSG00000143933_ENST00000272298|hu_mus|FALSE|FALSE (ssRNA)
# RNA: GGGAGUUCUACAGUCCGACGAUCUUCAUCUGUUAACUUCUCGCCAAGGUUUGUCAUCACAUGGCGAAGCUCUGCUGCACUAAUAUAGCCAUUGCCAUCCUUAUCAAACACACGGAAUGCUUCUCUAAUCUCUUCUUCACUGUCCAACAGAGGAUUGAGCAUCA
# B2: chr10:88205819:88205820:+_ENSMUSG00000060904_ENSMUST00000116234|mus_mus|FALSE|FALSE (ssRNA)
# RNA: GGGAGUUCUACAGUCCGACGAUCGUUGGCUCACAGGCGCUGACGUGAAUGGGCUCACUGUCUGCUUUUCAGGGUUUCAACUAACCAUUCCAUUGCCUCAUCAAGGCCAGUGCCUUUGGUUGCUGAAGUUUUAAAGAUCUGCCACAACAGAGGAUUGAGCAUCA
# B3: chr12:493273:493274:-_ENSG00000073614_ENST00000399788|hu_mus|hu_hu_hu_mus_False|28_48 (ssRNA)
# RNA: GGGAGUUCUACAGUCCGACGAUCUUUUCUCUCCACCACAGGGAUCUUCAAUGUAGAUCCUUGAAGUUCCCAAAAUUUUGCCAGUUGAUCCAAGAAAUCCAAUCUUACUCUGGUCAUUGCCUCAAGUUCAUUCAGGCGCUGGACCAACAGAGGAUUGAGCAUCA
# B4: chr5:145543945:145543946:-_ENSG00000133706_ENST00000545646|hu_hu|hu_hu_hu_mus_True|68_68 (ssRNA)
# RNA: GGGAGUUCUACAGUCCGACGAUCCUGAACGGCCAGUGGUGGGAAAUAAUCAAGCCAGUGCUCUGCUUCAGAAAAUUUCACUAUGUCGUCAUCAGAGAGCCCAAGGGAUUUCAUAAUGUCCCACUGGUACUUAGAAGAUCCUGCCAACAGAGGAUUGAGCAUCA
# B5: 97822651_97822771_3227_CDS_ENSG00000164715_ENST00000297293|human|control|control (ssRNA)
# RNA: GGGAGUUCUACAGUCCGACGAUCGUCCGGGGUUUCCAGGGACGGCUCAGAGGCUGGGAAGGGUGCUGACAAGCUGUCCUCCAGGAGGCUGUCCUGACUGGUUGAGUCCGAGGAGAGGGCAGACACCAAGCCUGCUUCUUUUGCCAACAGAGGAUUGAGCAUCA
# B6: chr19:56882518:56882519:-_ENSMUSG00000035173_ENSMUST00000118592|mus_mus|motif|central (ssRNA)
# RNA: GGGAGUUCUACAGUCCGACGAUCCUGAGACAGCUGCUUAAUUUUGUUAGUGUUUUUCUCCAAUUCCUUACUUGCAUCUCGGAGUUUCCUCUCAAGGGUUUCUUUUUCCUUUCGCAGGUCUAGAGCCUCCUUCUCGCCUCUCACCAACAGAGGAUUGAGCAUCA
# B7: chr2:100011259:100011260:+_ENSG00000158417_ENST00000289371|hu_mus|motif|central (ssRNA)
# RNA: GGGAGUUCUACAGUCCGACGAUCGUAGUCCUGUCUGUAUUUUGUAAAGGCAUCAAAUAAGUGAUAAAUAAUUUCUGCACGGAAGAUUCUAACUCCCAAACUAUCAGCCAUCUCUUGUGCGUCCCGUUCAAUUCUUACAUCAAACAACAGAGGAUUGAGCAUCA
# B8: chr1:245023758:245023759:-_ENSG00000153187_ENST00000283179|hu_mus|FALSE|FALSE (ssRNA)
# RNA: GGGAGUUCUACAGUCCGACGAUCAGCAAAACUCUCCAUAGUAAGGGAAGAAGCACUCAGACGGUCUCUCGAGAUUUUAAAAUGCAGAUCACAAUUAUAAGUAUCAAGACAAACCACUGUGUCAUCGAAGUGUUCGUCUUCUUCCAACAGAGGAUUGAGCAUCA
# B9: chr1:163112212:163112213:-_ENSG00000143248_ENST00000313961|hu_hu|hu_hu_hu_mus_False|28_28 (ssRNA)
# RNA: GGGAGUUCUACAGUCCGACGAUCUUUUAUUAUCAGUAAGAGUGAGUUACAUACUAGGCAAAGUAUUGGAUACAAUAAUCAGGAAACAAACACUAUUGGUCCAGAAUUUAAAAUAUAAUGAGCGAAGUGCUGGCACAGGACUUACAACAGAGGAUUGAGCAUCA
# B10: 16774833_16775393_925_3pUTR_ENSG00000169895_ENST00000380155|human|control|control (ssRNA)
# RNA: GGGAGUUCUACAGUCCGACGAUCCUAGUUGCUCCAUUUCUUUCCUUAGAUCUUCCUGAUUUAGGUUACAGGCAUCGAAGGCAUCACUGACAAACUCAGAAACACCUGGGCUAGUAGAAAUUUCUUCCUCAUCCUCUUGAGUUUCAACAGAGGAUUGAGCAUCA
# B11: chr1:163117127:163117128:-_ENSG00000143248_ENST00000313961|hu_mus|hu_hu_hu_mus_False|78_78 (ssRNA)
# RNA: GGGAGUUCUACAGUCCGACGAUCUGCUACAAAGGAUGUAACUCAACUCACAGGGCAUGAUUUCAUAGCCUGACCAGAUGACUACUUGAUUAGCUCCUUAUAAAAUUCAGAGCGCACAAAGCGGGGCAGAGAAUCCUUCUCCAUCAACAGAGGAUUGAGCAUCA
# B12: chr15:38448799:38448800:-_ENSMUSG00000037458_ENSMUST00000152833|mus_hu|FALSE|FALSE (ssRNA)
# RNA: GGGAGUUCUACAGUCCGACGAUCGCAGAAAUACCCAAGGCGGCCUGGGCCAUAGGCUGCGGGAACGACUUGGGGGUAAAAGCGCGGCACCGACACCAGCUGUGUGCAGCAGUGGCGGCGGCGGCCGAAGGAGAAAUAGAACAGCAACAGAGGAUUGAGCAUCA
# B13: chr18:35732242:35732243:+_ENSMUSG00000037236_ENSMUST00000166793|perfect_dup|FALSE|FALSE (ssRNA)
# RNA: GGGAGUUCUACAGUCCGACGAUCACGACUUCCAUGGUCAUAAUCAAGCACUGGGUUGAGACUAGGACCACGAUCAUCAAAACUAUCUCUUCUAAAGUGCCUUUUUUCUUCCCAAUCAUCCCUAGGUACUCUGUAUGGUGGCUCCAACAGAGGAUUGAGCAUCA
# B14: chr1:156905105:156905106:-_ENSG00000132694_ENST00000368194|hu_hu|FALSE|FALSE (ssRNA)
# RNA: GGGAGUUCUACAGUCCGACGAUCGAGGGAGGGAGUAGCUUGGCAGCAAGCUGUGGAGGGCAGGCUCUGGAGCCAGGUGGGAUGGGGAGCCAGAAGACCUUCCCACUCACAGGGACAGGAACACUCAGGCCUGGCUCCCGCUUUCAACAGAGGAUUGAGCAUCA
# B15: chr11:50199487:50199488:+_ENSMUSG00000007850_ENSMUST00000069304|mus_hu|FALSE|FALSE (ssRNA)
# RNA: GGGAGUUCUACAGUCCGACGAUCAAAUACUGGGCCUUAAGUCUUCAUAACAAUCCUGAUUUCCACUUAGAGUAAGCAUAAAUCACAAGCUUGUAUUGCAGAAACUGUUAAACUGAAGUUUUCUUAAAGAAAAAAAAAAAAAAACAACAGAGGAUUGAGCAUCA
# B16: chr2:128036804:128036805:-_ENSG00000163161_ENST00000285398|hu_hu|FALSE|FALSE (ssRNA)
# RNA: GGGAGUUCUACAGUCCGACGAUCGACAAUAAUCUUGUCAUUCCUCCUUUCAUGAAACUUGAUCAGAAACUGGCAAGCUCUAAAUUUGUUGGGGUUCAUGGUGUACAGCAAGAUUCGUUUCUUGGUUUUGAUUGCCACAUAUUCCAACAGAGGAUUGAGCAUCA
# B17: chr16:45382771:45382772:-_ENSMUSG00000022661_ENSMUST00000163230|mus_mus|mus_mus_mus_hu_True|68_88 (ssRNA)
# RNA: GGGAGUUCUACAGUCCGACGAUCCUGGGUCAUGUUAUAAGACAAAUGGAUAGGGAGGGCAUGCUUCUGUAAAGAUGUGAGCUAUUGUCUAAGACUAACAAUAUUUAUCUAGCUAUAAAAAUAAGUUAAAUGAAUAAGUUAAGACAACAGAGGAUUGAGCAUCA
# B18: chrX:12253581:12253582:-_ENSMUSG00000064127_ENSMUST00000096495|mus_mus|FALSE|FALSE (ssRNA)
# RNA: GGGAGUUCUACAGUCCGACGAUCUUAAAAAGUCCCUGACUGGCUUCAAGAGACAGUACAGUACUCUUAAAAAGAAAUCCUAUUGAGAUGUACCAGUGCCAGAAACUCCACUGAACACUGGACAGGCACUGCACUGUGGACUUUCAACAGAGGAUUGAGCAUCA
# B19: chr10:33190432:33190433:-_ENSG00000150093_ENST00000302278|hu_mus|hu_hu_hu_mus_True|78_108 (ssRNA)
# RNA: GGGAGUUCUACAGUCCGACGAUCUACAUUUUCAAAACCUGCAUGUGAAUAAAACCCUGGCAAUAUUGCCCCAAAACUACCCUACUGUGACUAAGAUGCUGCUGCUGUGAGCUUGGUGUUGCAAAAUCCGCCUGAGUAGGAUUCCAACAGAGGAUUGAGCAUCA
# B20: 104432508_104432628_880_CDS_ENSG00000164934_ENST00000297579|human|control|control (ssRNA)
# RNA: GGGAGUUCUACAGUCCGACGAUCGACUCCAUCACGGUGACCAUCCAGCGAAGCAAGGAAUGGUUUUGCAAAUACUCGUUCCAGUUUGGUAGCAUUUAAAGCUCUUAUAUAUUCUCGUGGGACCUCAAAAGGAUGUAAAGCAGGCAACAGAGGAUUGAGCAUCA
# B21: chr8:26875701:26875702:-_ENSMUSG00000037316_ENSMUST00000038498|mus_mus|FALSE|FALSE (ssRNA)
# RNA: GGGAGUUCUACAGUCCGACGAUCAGACUACUGAGACAGACAACCAAAUGCAAAACUGGAUCUGGAACAGUUGAGAGGAUGCUACUAAAAAGAUAAAUGAAGUGUCUACUUUUAGCUUGCUACUUCAGCUAAUAUUAAUAGCACCAACAGAGGAUUGAGCAUCA
# B22: chr4:115894766:115894767:+_ENSMUSG00000028698_ENSMUST00000030464|mus_hu|mus_mus_mus_hu_True|8_68 (ssRNA)
# RNA: GGGAGUUCUACAGUCCGACGAUCUUCCACACGGAAAUGUACUUCGGGUUUUCCAACGGCCAGUACCGUCCAGCCAAAACUACCCGAACAGGGUCCUCCCCCUCUCUCCUACAGAACACAACAAAAUAACAAAAUACUUUCAAGCAACAGAGGAUUGAGCAUCA
# Molecular target: T1, UNK ZnF1-3 (human, UniProt Q9C0B0 31-174)
# T1 sequence: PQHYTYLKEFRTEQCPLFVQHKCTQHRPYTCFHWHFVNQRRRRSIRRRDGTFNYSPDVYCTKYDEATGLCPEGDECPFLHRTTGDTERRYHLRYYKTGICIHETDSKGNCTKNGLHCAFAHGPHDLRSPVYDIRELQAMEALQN
# Experiment: nsRBNS (natural sequence RNA bind-n-seq); RBNS binding buffer (assumed for nsRBNS): 25 mM Tris pH 7.5, 150 mM KCl, 3 mM MgCl2, 0.01% Triton X-100, 500 ug/ml BSA, 20 U/ml SUPERase-In, 4 C; UNK is unkempt and MSI1 is Musashi-1; names of the RNAs are library labels; protein concentration not given here; high values mean tight binding
row,Binder,binding signal [enrichment R]
1,B1,0.699
2,B2,0.635
3,B3,1.05
4,B4,1.39
5,B5,0.95
6,B6,0.421
7,B7,2.98
8,B8,2.25
9,B9,2.04
10,B10,0.904
11,B11,0.969
12,B12,0.728
13,B13,1.07
14,B14,1.21
15,B15,1.2
16,B16,0.568
17,B17,2.03
18,B18,0.579
19,B19,1.39
20,B20,1.41
21,B21,1.84
22,B22,1.08
